Measurements published in PubChem BioAssay AID1476 (National Center for Advancing Translational Sciences (NCATS), 2009).
In all, about 200,000 compounds went through this assay and about 4,500 (2.2%) were called active. The shares of active, inactive and inconclusive entries below differ from those in the screen. Calls come from the whole dose curve; as a rule, active = well fitted inhibition curve with a large enough effect; inconclusive = small, poorly fitted or top-dose-only effect, or effect the other way; inactive = flat fitted curve, though single readings scatter. Where the call is inconclusive, the potency comes from a doubtful curve fit.

The compounds below were run against Cruzipain (Trypanosoma cruzi) (UniProt P25779) (assay: qHTS Assay for Promiscuous and Specific Inhibitors of Cruzain (without detergent)). Conditions: purified cruzain, Z-FR-AMC fluorescence, no detergent.
Chain of UniProt P25779 (P25779 whole entry, looked up): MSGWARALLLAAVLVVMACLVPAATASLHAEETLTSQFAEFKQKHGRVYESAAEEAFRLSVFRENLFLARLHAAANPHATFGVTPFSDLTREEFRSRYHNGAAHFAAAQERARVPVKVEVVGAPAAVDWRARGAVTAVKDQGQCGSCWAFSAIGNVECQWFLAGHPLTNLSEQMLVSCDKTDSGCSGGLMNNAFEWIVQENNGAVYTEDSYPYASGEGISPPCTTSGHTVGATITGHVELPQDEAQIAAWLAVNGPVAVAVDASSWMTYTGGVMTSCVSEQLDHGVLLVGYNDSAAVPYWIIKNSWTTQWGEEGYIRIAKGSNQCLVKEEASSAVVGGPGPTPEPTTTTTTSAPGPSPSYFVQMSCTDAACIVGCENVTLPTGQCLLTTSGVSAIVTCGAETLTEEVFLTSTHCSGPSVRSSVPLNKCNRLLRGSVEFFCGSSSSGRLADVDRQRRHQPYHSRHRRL
In short: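 Detergent-free condition (0.00005% Triton X-100) in acetate buffer pH 5.5 with DTT. 1.5 nM enzyme and compound were pre-mixed 15 min, then 2 uM Z-FR-AMC substrate added; reaction progress from fluorescence change between first and third reads (60 s).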
Note: nearly all actives have a fitted effect of over 40% in size.
Potency is the fitted concentration of half-maximal effect; tags give direction and shape of the fitted curve.
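Throughout, for max response, negative = inhibition: plate controls were enzyme without inhibitor for no effect and buffer without enzyme for full effect.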

| SMILES | Potency | max response, negative = inhibition |
| --- | --- | --- |
| O=C(Cc1nnc(NC(=O)c2ccccc2)s1)N/N=C/c1ccco1 | inconclusive: 39.8 µM [inhibitor, single point] | – |
| Nc1ccccc1Nc1cc(-c2ccccc2)nn1-c1cccc(Cl)c1 | inconclusive: 31.6 µM [inhibitor, single point] | – |
| CCOc1ccc(C(=O)Nc2ccc(S(=O)(=O)N(Cc3ccccc3)c3ccccc3)cc2)cc1 | inconclusive: 39.8 µM [inhibitor, single point] | – |
| O=C(COc1ccccc1)Nc1ccc(OCc2cc(=O)n3ccsc3n2)cc1 | – | inactive: -1.42% |
| O=C1CCCC2CCCCN12 (centres undefined) | – | inactive: -3.1% |
| O=C1CC(=C(c2ccccc2)c2ccccc2)C(=O)N1CCCCN1CCN(c2ccccc2)CC1 | inconclusive: 39.8 µM [inhibitor, single point] | – |
| CCCCOC(=O)c1ccc(NC(=O)COC(=O)CSc2nc(C)cc(C)n2)cc1 | inconclusive: 39.8 µM [activator, single point] | – |
| COc1ccc(C(c2c(O)cc(C)n(Cc3ccco3)c2=O)N2CCN(c3ccccc3)CC2)cc1 (centres undefined) | inconclusive: 31.6 µM [inhibitor, single point] | – |
| CN(C)c1c(N)[nH]c2c(c1=O)c(=O)n(C)c(=O)n2C | inconclusive: 39.8 µM [inhibitor, single point] | – |
| COc1ccc(C(c2nnnn2CC2CCCO2)N2CCN(c3ccccc3)CC2)cc1 (centres undefined) | – | inactive: 6.43% |
| CC(Sc1cccc2cccc(C(=O)O)c12)C(=O)O (centres undefined) | – | inactive: 2.51% |
| CCCOc1ccc(-c2cccc(NS(=O)(=O)c3cc(OC)ccc3OC)c2)nn1 | – | inactive: -15.1% |
| CC(C)(C)C1CCC(=NNC(=O)c2cc(-c3ccccc3)n[nH]2)CC1 (centres undefined) | active: 12.6 µM | – |
| COc1cccc(C(=O)NN2c3ccccc3CCc3ccccc32)c1 | inconclusive: 39.8 µM [inhibitor, single point] | – |
| Cc1ccc2nc(SCC(=O)Nc3ccc(F)c([N+](=O)[O-])c3)[nH]c2c1 | inconclusive: 25.1 µM [inhibitor, single point] | – |
| CC1CCc2c(sc(NC(=O)c3ccccc3)c2C(=O)Nc2ccccc2)C1 (centres undefined) | – | inactive: -6.19% |
| CC(C)(C)C(=O)NC1CCN(S(=O)(=O)c2ccccc2F)CC1 | – | inactive: 15.5% |
| O=C(c1ccc2c(c1)N(Cc1cccc(Cl)c1)C(=O)c1ccccc1S2(=O)=O)N1CCN(c2cccc(C(F)(F)F)c2)CC1 | active: 5.01 µM | – |
| CCN(CC)S(=O)(=O)c1ccc2c(c1)c(=O)c(C(=O)N1CCN(c3ccccc3)CC1)cn2C | inconclusive: 39.8 µM [activator, single point] | – |
| O=C1CC(N2CCC(c3nc4ccccc4s3)CC2)C(=O)N1Cc1ccccc1 (centres undefined) | inconclusive: 31.6 µM [activator, partial curve] | – |
| C=CCSc1nc2c(c(=O)[nH]c(=O)n2C)n1Cc1ccc(C)cc1 | inconclusive: 25.1 µM [inhibitor, single point] | – |
| Cc1ccc(-c2cc(C(=O)NCc3ccc4c(c3)OCO4)no2)cc1 | inconclusive: 39.8 µM [inhibitor, single point] | – |

| SMILES | Potency | max response, negative = inhibition |
| --- | --- | --- |
| COC(=O)[C@@]1(Cc2ccc(OC)cc2)[C@H]2c3cc(C(=O)N4CCCC4)n(CCN4CNCC4=O)c3C[C@H]2CN1C(=O)c1ccccc1 | inconclusive: 25.1 µM [activator, single point] | – |
| Clc1ccc2nc(-c3ccccc3)[nH]c2c1 | – | inactive: 4.21% |
| CC(=O)c1ccc(NS(=O)(=O)c2ccc3[nH]c4c(c3c2)CCCCCC4)cc1 | inconclusive: 39.8 µM [inhibitor, single point] | – |
| CCOc1ccc(CNC(=O)c2sc3nc(C)cc(C)c3c2-n2cccc2)cc1 | inconclusive: 5.01 µM [activator, single point] | – |
| Cc1cc2oc(C(=O)Nc3nc(-c4ccccc4)ns3)c(C)c2cc1Cl | inconclusive: 7.94 µM [inhibitor, single point] | – |
| O=C(COC(=O)c1cc(Cl)ccc1[N+](=O)[O-])Nc1cccc2ccccc12 | inconclusive: 39.8 µM [inhibitor, single point] | – |
| CN1CCN(C(CNC(=O)C(=O)Nc2ccc(F)cc2)c2cccnc2)CC1 (centres undefined) | inconclusive: 31.6 µM [activator, single point] | – |
| CCOc1ccc(C2C(C#N)=C(N)N3C(=C2C#N)Sc2ccccc23)cc1 (centres undefined) | inconclusive: 31.6 µM [inhibitor, single point] | – |
| O=[N+]([O-])c1cccc(-c2ccc(/C=N/n3c(-c4ccccc4)n[nH]c3=S)o2)c1 | active: 15.8 µM | – |
| CC(=O)c1ccc(NC(=O)/C(=C\c2ccccc2)NC(=O)/C=C/c2ccccc2)cc1 | inconclusive: 31.6 µM [inhibitor, single point] | – |
| O=C(OCC1OC(OC(=O)c2cc(O)c(O)c(OC(=O)c3cc(O)c(O)c(O)c3)c2)[C@@H](OC(=O)c2cc(O)c(O)c(OC(=O)c3cc(O)c(O)c(O)c3)c2)C(OC(=O)c2cc(O)c(O)c(OC(=O)c3cc(O)c(O)c(O)c3)c2)C1OC(=O)c1cc(O)c(O)c(OC(=O)c2cc(O)c(O)c(O)c2)c1)c1cc(O)c(O)c(OC(=O)c2cc(O)c(O)c(O)c2)c1 (some centres undefined) | active: 7.94 µM | – |
| O=C(O)/C=C/c1nc(-c2ccccc2)n2ccccc12 | inconclusive: 39.8 µM [inhibitor, single point] | – |
| COC(=O)c1cc(OC)c(OC)cc1NC(=O)Cc1ccccc1[N+](=O)[O-] | inconclusive: 39.8 µM [activator, single point] | – |
| Nc1ncnc2c1ncn2C[C@@H](O)C(=O)O | – | inactive: 9.17% |
| COc1ccc(-c2csc(NC(=O)CCn3cnc4ccccc4c3=O)n2)cc1OC | inconclusive: 39.8 µM [activator, single point] | – |
| COc1ccccc1CNC(=O)c1c(O)c2cc(OC)c(OC)cc2[nH]c1=O | active: 3.16 µM | – |
| Cc1cccc(Cn2c(CN3CCC(C(=O)NCc4ccccc4Cl)CC3)cc3ccccc32)c1 | inconclusive: 39.8 µM [inhibitor, single point] | – |
| O=S(=O)(NCc1csc(-c2ccccc2)n1)c1ccccc1 | – | inactive: 6.21% |
| CC1CCCCN1CCCNC(=O)c1sc2ncccc2c1-n1cccc1 (centres undefined) | – | inactive: -2.84% |
| O=C(CCC(=O)Nc1ccccc1)N/N=C/c1ccncc1 | inconclusive: 31.6 µM [activator, single point] | – |
| COc1cccc(-c2nc(C(N)=O)c3[nH]c(=O)n(-c4cccc(Cl)c4)c3n2)c1OC | inconclusive: 39.8 µM [activator, single point] | – |
| CNC(=O)C1CCC(Cn2c(=O)c3sccc3n(CC(=O)Nc3cc(C)cc(C)c3)c2=O)CC1 (centres undefined) | – | inactive: -8.38% |

| SMILES | Potency | max response, negative = inhibition |
| --- | --- | --- |
| COc1ccc(CC(NC(C)=O)C(=O)NC2CCN(c3c(Cc4ccccc4)c(C)nc4ncnn34)CC2)cc1OC (centres undefined) | inconclusive: 25.1 µM [activator, partial curve] | – |
| COc1ccc(C(=O)N/N=C(/C)c2ccc(N3CCCCC3)cc2)cc1 | inconclusive: 39.8 µM [inhibitor, single point] | – |
| Cc1ccc(S(=O)(=O)N(CC(=O)N2CCC(C(N)=O)CC2)Cc2ccc(F)cc2)cc1 | inconclusive: 31.6 µM [activator, single point] | – |
| Cc1cccc(NC(=O)Nc2ccc(C)c(C)c2)n1 | inconclusive: 31.6 µM [inhibitor, single point] | – |
| CC(=O)Nc1ccc(S(=O)(=O)N2CCN(c3ccc(C)c(C)c3)CC2)cc1 | inconclusive: 25.1 µM [activator, single point] | – |
| CCCSc1nnc(NC(=O)Cc2coc3cc(C)ccc23)s1 | inconclusive: 3.98 µM [inhibitor, single point] | – |
| COc1cc2c(C(=O)Nc3ccc4c(c3)OCO4)cn(CC(C)C)c(=O)c2cc1OC | inconclusive: 25.1 µM [activator, single point] | – |
| COCCn1c(=O)cnc2cnc(Oc3ccc(OC)cc3)nc21 | – | inactive: -8.4% |
| CNC(=O)c1cccc(-n2c(C)nc3cccnc32)c1C | – | inactive: 10.6% |
| Cc1cc2c(cc3c(SCc4cccc(Cl)c4)nnc(C)n32)o1 | inconclusive: 39.8 µM [activator, single point] | – |
| Cc1ccc2oc(-c3ccc(NC(=O)c4cccnc4)cc3)nc2c1 | inconclusive: 31.6 µM [activator, single point] | – |
| COc1ccc(NC(=O)Cn2cc(S(=O)(=O)c3ccccc3)c(=O)c3cc(C)ccc32)cc1Cl | active: 25.1 µM | – |
| COC(=O)[C@@H]1C[C@H]1[C@@H](NC(C)=O)c1ccccc1 | – | inactive: -0.824% |
| COc1ccc(-c2nc3cncnc3n(-c3ccccc3)c2=O)cc1 | – | inactive: -14.2% |
| CC(=O)OCC(CCn1cnc2cnc(N)nc21)COC(C)=O | inconclusive: 15.8 µM [activator, single point] | – |
| COc1ccccc1NS(=O)(=O)c1cc([N+](=O)[O-])ccc1N/N=C/c1sc(N2CCOCC2)nc1-c1ccccc1 | active: 6.31 µM | – |
| COc1ccc(CCNC(=O)c2cc3c(=O)n4ccccc4nc3n2C)cc1 | inconclusive: 39.8 µM [inhibitor, single point] | – |
| O=C(Nc1nc(-c2cc3ccccc3oc2=O)cs1)c1ccco1 | – | inactive: -5.16% |
| CCN(CC)S(=O)(=O)c1ccc(N2CCOCC2)c(NS(=O)(=O)c2cc(C(C)(C)C)ccc2C)c1 | inconclusive: 20 µM [activator, single point] | – |
| O=C(CSc1nnc2scc(-c3ccccc3)n12)N1CCN(Cc2ccccc2)CC1 | – | inactive: -9.26% |
